Test results: PMC7819943, “Rice protein-binding microarrays: a tool to detect cis-acting elements near promoter regions in rice”
Some of the results follow.

Biological target: T1, OsWOX13 (Oryza sativa, UniProt Q5QMM3 1-267)
T1 sequence: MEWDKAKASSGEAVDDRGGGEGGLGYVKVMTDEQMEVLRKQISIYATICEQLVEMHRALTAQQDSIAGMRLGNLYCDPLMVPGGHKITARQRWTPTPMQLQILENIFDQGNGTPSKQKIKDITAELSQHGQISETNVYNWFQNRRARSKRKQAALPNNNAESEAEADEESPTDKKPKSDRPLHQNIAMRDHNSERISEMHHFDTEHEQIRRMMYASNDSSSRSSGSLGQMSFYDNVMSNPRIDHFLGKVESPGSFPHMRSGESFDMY
Assay: protein-binding microarray (RPBM); PBS, 2% BSA, 51.3 ng/ul salmon testes DNA, 50 uM zinc acetate, 200 nM TF, 25 C, 1 h; high values mean tight binding
Details: protein: recombinant; tags: N-terminal polyhistidine and DsRed monomer fusion (pET32a); label: CyDye5-dUTP incorporated in the synthesized complementary strand; 3' TTTTT single-stranded linker to array surface; dsDNA, one strand shown
Summary of the method: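 Ni–NTA purification followed expression in E. coli BL21-CodonPlus of transcription factors fused N-terminally to a polyhistidine tag and DsRed. At 200 nM in PBS with 2% BSA, salmon testes DNA and 50 µM zinc acetate, the protein was incubated for 1 h at 25 °C with a custom Agilent array that had been primer-extended with Cy5-dUTP and blocked with 2% BSA. After washing, the array was read on an Axon 4000B scanner. The binding signal is per-feature fluorescence intensity in arbitrary units.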

Sequence	binding signal
TTACTAATTACTTCCATATTAAAGCTATCATCAATCCATCCGGAGTCACCTAGTGCAG	21800 fluorescence intensity (a.u.)
ATTTAGATTGTTTAGGAAACTGTAGAGATTATAAAATAAGCGGAGTCACCTAGTGCAG	11700 fluorescence intensity (a.u.)
TGGGTGGGCATCAATCTAGACCCAGTCCACGTACGTGGGGCGGAGTCACCTAGTGCAG	3320 fluorescence intensity (a.u.)
CGGACTGCAAAATTTGATGGGCCATACTACCACTACTTCCCGGAGTCACCTAGTGCAG	3410 fluorescence intensity (a.u.)
ATACTAGCTACTAATTAATGGATTAAGGTGATGTTATGGTCGGAGTCACCTAGTGCAG	7720 fluorescence intensity (a.u.)
GCAAATTGCATCCTTTGCCAGCTGAGTAATATGAATTGTGCGGAGTCACCTAGTGCAG	4990 fluorescence intensity (a.u.)
CTCTAAATTTGATTAAGTTTGTAGACAAATATATTATAATCGGAGTCACCTAGTGCAG	13500 fluorescence intensity (a.u.)
TTAAAGAAGCAATTAGTAAACAAATTAGAGAAGCAGATAGCGGAGTCACCTAGTGCAG	7290 fluorescence intensity (a.u.)
GAAATTGATGAGTGGGTCCCACGTGTAGTTGAGCCAATCACGGAGTCACCTAGTGCAG	31400 fluorescence intensity (a.u.)
GAGTAAATTTAGTTCTTTCTTACTTATTCACGATTGCCGACGGAGTCACCTAGTGCAG	9400 fluorescence intensity (a.u.)
TATGTAATTTATTTTGTTATTAGACTACGTTTAATAGTTCCGGAGTCACCTAGTGCAG	6960 fluorescence intensity (a.u.)
GCCACGTTACTAGTTTAATTAGCAAGAGTGAAACCAATTTCGGAGTCACCTAGTGCAG	4470 fluorescence intensity (a.u.)
GCCTTTAAAACCAATAATTGCTATTGTTCTCTAGCTGTTGCGGAGTCACCTAGTGCAG	3720 fluorescence intensity (a.u.)
AATGAGCTATTAGATTGGCTATAGATGAATTAAAGCTAATCGGAGTCACCTAGTGCAG	7950 fluorescence intensity (a.u.)
CCTGCTCCACATTACTACATGATTGCCACATGCTTCACATCGGAGTCACCTAGTGCAG	7420 fluorescence intensity (a.u.)
GATGAGCTATTAGCACATAATTAATTGAGTATTAACTATTCGGAGTCACCTAGTGCAG	8900 fluorescence intensity (a.u.)
ACACCCGTACTTTATTGATTTGTGGCTATCCAAATGTTGGCGGAGTCACCTAGTGCAG	5520 fluorescence intensity (a.u.)
TATATCTCAAATCATAATTATGGTTCAGTTTAACCCGATGCGGAGTCACCTAGTGCAG	9750 fluorescence intensity (a.u.)
TTTTCTTTGATTAATGTGAGAATTTCTAGCCTCTAGAGCGCGGAGTCACCTAGTGCAG	9310 fluorescence intensity (a.u.)
ATCCTAACTCAAGCAATGATTGATAGGACTAAGGAAACACCGGAGTCACCTAGTGCAG	29600 fluorescence intensity (a.u.)
CCAATCCTAATTGCTGTAATTACCCTCCGTGAATTATTGACGGAGTCACCTAGTGCAG	27500 fluorescence intensity (a.u.)

Sequence	binding signal
TTAGGATGATTGATAAGTTTTAGAGCCTTCCTAATAGCACCGGAGTCACCTAGTGCAG	35900 fluorescence intensity (a.u.)
TCTGTAAATTACATCCAGAAACCAAGTGAACTATAGGTGGCGGAGTCACCTAGTGCAG	8100 fluorescence intensity (a.u.)
CTCAATGCGGTTTGATTGACGTGTAGAGCAGCCATTGGCCCGGAGTCACCTAGTGCAG	28500 fluorescence intensity (a.u.)
AAAGATTATTTCGATTTCTTTACTATATTTAGTACAATTGCGGAGTCACCTAGTGCAG	3200 fluorescence intensity (a.u.)
CTTCACTTAATTTGCTGTCTGTACAAACTACGAAGTAAACCGGAGTCACCTAGTGCAG	14200 fluorescence intensity (a.u.)
TTAATTGATTGATTGATTGATTAATCCGTTGTGAATCTAACGGAGTCACCTAGTGCAG	61500 fluorescence intensity (a.u.)
CGCAGACAGAAACAGTCGGTGATCGATCGGCTTGATTCCTCGGAGTCACCTAGTGCAG	7530 fluorescence intensity (a.u.)
CAGATTGGCCCACAAGAAACTTATCCCCAAGATATTTGTTCGGAGTCACCTAGTGCAG	5050 fluorescence intensity (a.u.)
AGAAGATTGAGCAAGTTCAACTGAAACCTAACTCGACAAGCGGAGTCACCTAGTGCAG	6020 fluorescence intensity (a.u.)
CAAAATTGCAGATGGGTATCAGATTTATGCTAAGTTGGATCGGAGTCACCTAGTGCAG	5480 fluorescence intensity (a.u.)
TATATATATATATATATATATATATAGAAATTAAGTCAAACGGAGTCACCTAGTGCAG	15900 fluorescence intensity (a.u.)
TGAAACTGTAAATTGGAGGTCTATATGTTTCATCCATTAACGGAGTCACCTAGTGCAG	9700 fluorescence intensity (a.u.)
TAAAACTTAATTAATTATACGTTAATATTACCTCGTTTTGCGGAGTCACCTAGTGCAG	53900 fluorescence intensity (a.u.)
TGTAATAATCACTACATGTGTCATCGATCGATCAATTATGCGGAGTCACCTAGTGCAG	4810 fluorescence intensity (a.u.)
CTTGTAATTTATGGCTATATACACCTGTCAGCCGGGACTACGGAGTCACCTAGTGCAG	12500 fluorescence intensity (a.u.)
TAATTAATTTAGCTCACAACATATGGGCAGATCTGAGCTGCGGAGTCACCTAGTGCAG	11700 fluorescence intensity (a.u.)
TTGATTTTAATGGACAAAGGGAATATCTTAGTAAATCTAACGGAGTCACCTAGTGCAG	5560 fluorescence intensity (a.u.)
AATTTAAATTTTGGAGATAAATTATTGCTAATCTGTTGGTCGGAGTCACCTAGTGCAG	18700 fluorescence intensity (a.u.)
CATCTGCTGCACCCTAATTGGTATCTACTCCTCATCTAATCGGAGTCACCTAGTGCAG	5170 fluorescence intensity (a.u.)
ATATCACCAATGATTTAAACCAAAACACATTTTGCAGGTCCGGAGTCACCTAGTGCAG	4370 fluorescence intensity (a.u.)
ACTTGATGATGTAATACATTCTAATACAGTAAATCTGGACCGGAGTCACCTAGTGCAG	7510 fluorescence intensity (a.u.)
